In the supplement of paper PMC10126150:
Values marked as one replicate rest on one cluster of the flow cell; about a third of the high ones do not repeat.

System: ATP
Assay: switch fluorescence ratio, 500 uM ATP over buffer (Cy3 cluster intensity, sum of 5 cycles each) (fold (ratio)); higher = stronger signal-on switching upon ATP binding; sequences stand for … in TCGTCGGCAGCGTCAGATGTGTATAAGAGACAGTTTTTTTTTTTTTTTTTTTTTTTTT…TC
Details: aptamer strand: ATP DNA aptamer (quencher-CACCTGGGGGAGTATTGCGGAGGAAGG + anchor), 100 nM annealed; ATP concentration: 500 uM; one replicate
How it was run: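 Exposure to 500 uM ATP lasted 15 min at 22 °C before imaging, and a selection-buffer image was taken beforehand, for Cy3-labelled switching-strand clusters on a modified Illumina MiSeq flow-cell annealed to 100 nM quencher-labelled ATP aptamer. Five buffer/ATP cycles were run with NaOH stripping and re-annealing between them. The fluorescence ratio per cluster is summed target-cycle over summed buffer-cycle Cy3 intensity, averaged per switch-domain sequence. Clusters outside 100-1000 RFU were excluded.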

Row | Sequence | switch fluorescence ratio
1 | CACAAGGTTA | 0.998
2 | ATGTTTAAAC | 1.01
3 | TGGATCTGGA | 0.966
4 | TAGGGTGGTC | 0.999
5 | ACCTCCTATA | 1.21
6 | GATGGCCGGG | 0.949
7 | TCTCATTTCA | 0.987
8 | TTGCAGAAAG | 1.02
9 | GTATGGCTTT | 1.02
10 | TGTGTTTGCC | 0.959
11 | AGGATCAATG | 0.985
12 | CGACCCACAC | 1.61
13 | TAACAACTTC | 1.02
14 | AAGTAGGCT | 0.966
15 | TAGAACGCT | 1.06
16 | GTTGTGCTCC | 1.06
17 | GGTCTGGTTC | 1.04
18 | TCGATAAGGG | 0.988
19 | ATTTGACAG | 1.11
20 | CAGTTGTATC | 1.01
21 | CAGCAAGTTT | 1.08
22 | ACCTGAGCGG | 1.05
23 | TTGACAGTTT | 1.01
24 | GCAGCACTGT | 1.09
25 | CCATGGGCGC | 0.995
26 | AAAAGAGCTG | 1.07

Row | Sequence | switch fluorescence ratio
27 | GTAAGCTTCT | 1.06
28 | CACTCGATGG | 0.998
29 | GGGAATCAAT | 1.01
30 | AGGCCTAGC | 0.978
31 | TGGCATCAC | 1.08
32 | GGGGAGGGT | 0.976
33 | GCGAACCTCA | 1.1
34 | AGCTATGTGC | 0.993
35 | TAGAAGACTC | 1.06
36 | CGGATGGGAG | 1
37 | TTCAATATTA | 1
38 | CGCTTCGGGA | 1.01
39 | TGGAAGCAGC | 1.08
40 | TGGTTAACGA | 1.01
41 | CATTTGATGG | 0.997
42 | AGTGAGAAAA | 0.977
43 | AAGGATACAA | 0.979
44 | ATTGGTAAAA | 1.02
45 | TATCTAATTG | 0.985
46 | CAAGTTGGGT | 1.02
47 | ATCCGCACTA | 2.32
48 | TGCGAAAGTA | 1.03
49 | TGAAGGCCGA | 1.02
50 | CCGGTGAATT | 1.05
51 | TAAGTTCTCC | 1.04
52 | TCTCACAAGT | 0.986

Row | Sequence | switch fluorescence ratio
53 | ACCTTAGCAT | 1.43
54 | TAGGGGTCAC | 0.981
55 | GCACATCCTA | 1.12
56 | GGAAATAATG | 1.02
57 | GTCTATATTG | 1.01
58 | CAGACATTTC | 1.02
59 | GCTGTCTAGA | 1.04
60 | ATAACGAGTA | 0.99
61 | CCTGTTATGT | 1.01
62 | GCGTCGACGT | 1.03
63 | AGTATCCGT | 0.946
64 | GGAGCCAATT | 1.03
65 | AATGTGCCAG | 1.01
66 | TGTAAGACGT | 1.01
67 | CATTACGATC | 1.03
68 | TCGAAGGTGG | 0.998
69 | CGACTCTTAA | 1.09
70 | CGTCCTTCAG | 0.996
71 | GGCGGGTTCG | 0.984
72 | ATGAGCAGAG | 1.06
73 | AGCTTTAACT | 1.04
74 | GCCAGCATGC | 1.12
75 | GCACTCATCG | 1
76 | AGTAATTAGT | 0.93
77 | GAGCGGATTC | 1.07
78 | GTCCTGCCAG | 1

Row | Sequence | switch fluorescence ratio
79 | CAGACTAGTC | 0.963
80 | AGCGCGCAGT | 1.04
81 | CGACAGGGGG | 1.01
82 | CACCGGGTGC | 2.07
83 | TAAGAGGGAA | 1.03
84 | TTTCTGACAA | 1.73
85 | CGCCCCGGGC | 1.04
86 | TCGAGGCGCG | 1.03
87 | TTCTGACT | 0.957
88 | TTTGCTCAAT | 1.03
89 | GACAACAG | 1.02
90 | AGGAGCTCGT | 1
91 | AAGATGCGGG | 1.02
92 | TGTCCTAAGT | 0.975
93 | GGCTTTAGAG | 0.989
94 | ACTTGCATCA | 1.05
95 | CATGGTGGCT | 1.03
96 | TGGAATTCAC | 0.998
97 | ACGCGTACAC | 1.09
98 | TCTGTAACC | 1.85
99 | ACCATATAAT | 1.03
100 | AGTACTACAT | 1.07
101 | GGTAGGAGTG | 1.03
102 | GAATAGCATG | 1.01
103 | GGAGAATTGG | 0.971
104 | AATGCAGGCG | 1.08

Row | Sequence | switch fluorescence ratio
105 | CTTGGCACGA | 1.02
106 | GCATAGTGGG | 0.968
107 | TCAGTTGAA | 1.02
108 | GCAATCCCAT | 1.07
109 | ACCATTCTGT | 0.964
110 | AGCCATGGAC | 1.02
111 | GTAGTAATGA | 1.23
112 | GTGTTGCTAG | 0.986
113 | AACAGTATTA | 1.32
114 | CTATTTGTA | 0.991
115 | GACTAGTCAT | 1.01
116 | TTTTTGCTG | 0.991
117 | GACTAATGC | 1.22
118 | AACATGGCCA | 0.995
119 | AGCATTGGC | 0.988
120 | TTCGGCCTAG | 1.01
121 | ATGTGTAAGG | 1.03
122 | ATCCGATTCT | 1.01
123 | TGGGTCACGA | 0.968
124 | CTATCTCAGA | 0.999
125 | AGTCTACGCG | 1.01
126 | CTTTGAGTAA | 1.04
127 | GTCACTCGGG | 1.02
128 | TGGATGAAG | 0.978
129 | TATTCACAGC | 1.02
130 | CAGAGTCATG | 1.02

Row | Sequence | switch fluorescence ratio
131 | TGGTCGGAAA | 0.996
132 | TAGTTGTGAT | 0.955
133 | GCGGGGTGCG | 1.04
134 | TTTATCAATC | 1.13
135 | TTGACGTCCG | 0.945
136 | CTTTGCTGAG | 1
137 | CATTCCTGGG | 1.01
138 | AGTTTAATGG | 0.986
139 | ATTCAGGCTC | 0.993
140 | TTGGTAGTAA | 0.998
141 | TTGGTGCTCT | 1.02
142 | ATTACCCTTG | 1
143 | TCCAGTTGTG | 1.07
144 | CGTTAGCGAT | 1.19
145 | CCCTGTTTTC | 1.02
146 | ACCAGGGTTG | 1.22
147 | TTTGTGATAC | 1.7
148 | GTTTTACTTC | 1.01
149 | TTAATCTCT | 0.976
150 | CGTCAGGGAC | 1.04
151 | CTATGGCCCC | 0.967
152 | AAGCTAGAGA | 1.01
153 | TTCATCAAGC | 1.1
